According to paper PMC4336329 (PLoS ONE, 2015):
Screen size: about 310,000 compounds; about 14,000 (4.5%) showed an effect of 50% or more. The effect is printed as a negative number. Some of the results follow.

target: human ether-à-go-go-related gene (hERG) potassium channel (human, UniProt Q12809); assay: primary screen, population patch clamp on CHO cells stably expressing hERG
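Also: peak tail current of the secondary pulse compared with the same well before compound.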

Chain of human ether-à-go-go-related gene (hERG) potassium channel (Q12809 whole entry, looked up): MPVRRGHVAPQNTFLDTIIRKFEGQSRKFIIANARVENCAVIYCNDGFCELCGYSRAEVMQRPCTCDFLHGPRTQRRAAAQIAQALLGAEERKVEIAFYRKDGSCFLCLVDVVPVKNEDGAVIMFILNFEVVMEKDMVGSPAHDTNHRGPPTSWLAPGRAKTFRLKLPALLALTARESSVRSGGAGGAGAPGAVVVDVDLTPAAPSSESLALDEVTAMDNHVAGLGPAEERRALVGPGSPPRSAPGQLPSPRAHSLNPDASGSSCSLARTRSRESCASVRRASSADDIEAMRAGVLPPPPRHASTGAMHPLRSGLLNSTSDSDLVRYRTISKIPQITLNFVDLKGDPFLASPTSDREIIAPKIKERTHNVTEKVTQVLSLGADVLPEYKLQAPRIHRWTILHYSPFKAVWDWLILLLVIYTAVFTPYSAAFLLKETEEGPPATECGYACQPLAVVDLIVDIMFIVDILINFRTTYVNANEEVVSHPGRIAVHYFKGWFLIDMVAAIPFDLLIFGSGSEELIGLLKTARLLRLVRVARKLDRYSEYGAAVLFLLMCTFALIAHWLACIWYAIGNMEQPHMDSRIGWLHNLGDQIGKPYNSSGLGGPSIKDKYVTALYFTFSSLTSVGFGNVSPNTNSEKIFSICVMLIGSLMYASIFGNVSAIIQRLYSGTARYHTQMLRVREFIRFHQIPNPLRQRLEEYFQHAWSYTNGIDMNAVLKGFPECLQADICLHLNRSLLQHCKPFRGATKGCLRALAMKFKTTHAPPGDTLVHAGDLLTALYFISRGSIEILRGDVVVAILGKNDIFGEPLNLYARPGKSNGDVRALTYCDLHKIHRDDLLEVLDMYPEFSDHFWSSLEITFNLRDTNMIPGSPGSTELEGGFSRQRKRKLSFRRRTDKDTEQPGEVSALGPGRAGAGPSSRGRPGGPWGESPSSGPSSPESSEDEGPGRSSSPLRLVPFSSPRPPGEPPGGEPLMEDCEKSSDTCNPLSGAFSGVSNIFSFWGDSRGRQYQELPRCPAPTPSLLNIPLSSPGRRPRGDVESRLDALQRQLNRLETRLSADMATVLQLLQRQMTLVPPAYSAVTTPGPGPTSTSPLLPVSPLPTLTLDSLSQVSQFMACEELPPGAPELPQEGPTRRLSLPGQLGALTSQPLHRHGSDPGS

Structure (SMILES)	hERG current change (%, negative = inhibition) at 10uM [%]
O=C(CN1C(=O)C2CC=CCC2C1=O)Nc1ccccc1N1CCCC1 (stereo not shown)	6.41
COc1ccc(C(=O)O)cc1S(=O)(=O)Nc1cccc(C)c1	-18.9
CCc1cc(C(=O)NNC(=O)CCl)sc1C	1.58
COCCNC(=O)C(c1ccc(F)cc1)N(C(=O)CCC(=O)Nc1ccccn1)c1ccc(C)cc1 (stereo not shown)	4.24
COCCn1c(=S)[nH]c2sc3c(c2c1=O)CCCC3	27.6
COc1cccc(NC(=O)COC(=O)c2ccc(S(=O)(=O)NCc3ccco3)cc2)c1	-8.16
CCCCc1nc2cc(C(=O)N3CCCCC3COC)ccc2o1 (stereo not shown)	-12.8
CC(C)c1ccc(N=C2NN=C(c3cccs3)CS2)cc1	5.69
COc1ccc(-c2cc(C(F)(F)F)nc(SCCC(=O)NCc3ccco3)n2)cc1	12.2
CC1CC(C)CN(C(=O)C2CCN(C(=O)Nc3ccccc3)CC2)C1 (stereo not shown)	8.68
N#CC1=C(N)OC2=C(C(=O)CCC2)C12CCC1(CC2)OCCO1	10.1
CCCc1cc(C(=O)NCc2ccco2)no1	9.57
CCOC(=O)c1ccc(CNCc2ccc(C)cc2)cc1	-40.2
CC(C)(C)NC(=O)NC(=O)CSc1ncccn1	22.7
O=c1ccc2cc(S(=O)(=O)N3CCN(c4ccccc4F)CC3)ccc2o1	-0.156
Cn1c(SCC(=O)N2CCCCC2)nc2c(c1=O)SCC2	12.5
COc1ccc(OCCSc2n[nH]c(N)n2)cc1	-5.26
CCc1ccc(OCc2nnc(SCC(=O)N3CCN(c4ccccc4)CC3)o2)cc1	4.13
O=S(=O)(NCCSCc1ccc(Cl)c(Cl)c1)c1ccc2c(c1)OCCO2	2.77
Cc1ccc(C)c(NC(=O)CS(=O)(=O)c2c[nH]c3ccccc23)c1	-2.33
CCc1ccc(-n2c(SCC(=O)NC3CCS(=O)(=O)C3)nc3ccccc3c2=O)cc1 (stereo not shown)	-30
O=C(COc1ccc(Br)cc1Cl)NNC(=O)c1ccccc1	2.57
CCCN(CC1CC1)S(=O)(=O)c1ccc(-n2cnnn2)c(OC)c1	-21.9

Structure (SMILES)	hERG current change (%, negative = inhibition) at 10uM [%]
Cc1ccc(OCCCC(=O)Nc2ccccc2C(F)(F)F)cc1	4.29
CN(Cc1ccccc1)c1nc2c(c(=O)[nH]c(=O)n2C)n1Cc1ccccc1F	15.7
Cn1c(=NC(=O)CSCC(=O)N2CCOCC2)sc2ccccc21	11
O=C(Nc1nc2ccccc2[nH]1)c1cccc(F)c1	14.3
O=C(Cn1nnc2ccccc21)N/N=C/c1ccco1	-1.91
O=C1/C(=C/c2cccc(F)c2)SC(=S)N1NS(=O)(=O)c1ccccc1	-41.7
COc1ccc(NS(=O)(=O)CC23CCC(CC2=O)C3(C)C)cc1 (stereo not shown)	-1.3
Cc1cccc(OCCN2CCOCC2)c1C	7.66
Cc1ccc(N2CC(C(=O)O)CC2=O)cc1 (stereo not shown)	5.08
Cc1cc2oc(=O)cc(C)c2c(=O)o1	-65.8
O=c1c2c3c(sc2nc2n1N=C(c1cccs1)CS2)CCCC3	5.12
COCCn1nnnc1C(C(C)C)N(Cc1cccnc1)Cc1cc2cc(OC)ccc2[nH]c1=O (stereo not shown)	-29.3
O=C(CCN1C(=O)/C(=C/c2ccccc2F)SC1=S)NCCCn1ccnc1	-38.1
CN1CCN(C(=O)/C=C/c2ccc(Cl)c(Cl)c2)CC1	-23
O=S(=O)(NCc1ccccc1)c1ccc(Cl)c(S(=O)(=O)NCc2ccccc2)c1	-33
CCOC(=O)c1sc(=NC(=O)/C=C/c2ccccc2)n(C)c1C	6.02
COc1ccc(-n2nc(C(=O)N3CCN(Cc4ccc5c(c4)OCO5)CC3)c3ccccc3c2=O)cc1	-4.87
O=C(Cn1ncc2c([nH]c3ccccc32)c1=O)NCCc1ccc(Cl)cc1	15.3
CCNC(=S)Nc1ccc2c(c1)oc1ccccc12	5.83
CCOC(=O)c1cccc(NC(=O)c2cnccn2)c1	-3.79
Cc1ccccc1NC(=O)COC(=O)c1c(-c2ccccc2)noc1C	-4.62
Cl.N#Cc1cccc(C(c2nnnn2Cc2ccccc2)N2CCCC2)c1 (stereo not shown)	-22.7
CCC(CC)CN1CCN=C1N(C)C	-4.45

Structure (SMILES)	hERG current change (%, negative = inhibition) at 10uM [%]
Cc1ccc(-n2ncc3c(NCCCOC(C)C)ncnc32)c(C)c1	-2.69
CCOc1ccc(S(=O)(=O)N2CCCCC2)cc1NC(=O)Cc1ccsc1	2.15
COc1ccc(/C=C2\SC(=O)N(CCC(=O)N3CCN(C)CC3)C2=O)cc1	-17.7
COc1ccc(-c2ccccc2)c2oc(-c3ccco3)cc(=O)c12	6.83
CCN(Cc1ccccc1)CC(O)COc1ccccc1.Cl (stereo not shown)	-25.7
COC(=O)CN1C(=O)Nc2ccc(C)cc2C1c1ccccc1 (stereo not shown)	14.3
O=C(Nc1ccc(F)cc1)c1ccc2ncsc2c1	3.73
COc1ccc(NC(=O)CN(C)C(=O)C2=COCCO2)cc1	13.4
CCOc1ccc(CN2CCN(Cc3cc4c(cc3Cl)OCO4)CC2CCO)cc1 (stereo not shown)	-73.3
Cc1nn(C(C)C(=O)N2CCc3ccccc32)c(C)c1[N+](=O)[O-] (stereo not shown)	10
Nc1ncnc2nc(N3CCN(C(=O)c4ccccc4)CC3)[nH]c12	1.04
Cc1cc(Br)ccc1NC(=O)CN(C)Cc1cccs1	2.68
Nc1c(C(=O)NCc2ccccc2)nnn1Cc1ccc(F)cc1	17.5
C=CCn1c(COc2cccc(C)c2)nnc1SCn1nnc2ccccc2c1=O	-5.37
CC(C)NC(=O)COc1nncc2ccccc12	23.9
COc1ccc(C2=C(C=Nc3c(C)n(C)n(-c4ccccc4)c3=O)C(c3ccccc3C)c3ccccc3O2)cc1OC (stereo not shown)	11.7
O=C(CCN1C(=O)CSc2ccccc21)Nc1cccc(C(F)(F)F)c1	-43.5
COC(=O)CNC(=O)COC(=O)c1ccc(Cl)nc1	51.1
COc1ccccc1C(=O)NCCC(=O)N(C)CC(=O)Nc1c(Cl)cccc1Cl	-3.13
OCC1(CCc2ccccc2)CCN(Cc2cccn2-c2cccnc2)CC1	-49.4
N#Cc1c(C(F)(F)F)cc(-c2ccccc2)nc1SCC(=O)Nc1sc2c(c1C#N)CCC2	8.19
COCCCN1C(=O)C(=O)/C(=C(/O)c2ccc3c(c2)CC(C)O3)C1c1cccnc1 (stereo not shown)	6.56
COc1ccc(C(=O)Nc2c(O)ccc3ccccc23)cc1OC	0.249

Structure (SMILES)	hERG current change (%, negative = inhibition) at 10uM [%]
COc1ccc(C2=NOC(C(=O)N3CCOCC3)C2)cc1OC (stereo not shown)	11.6
CC(/C=N/n1c(-c2ccco2)n[nH]c1=S)=C\c1ccccc1	11.7
CCN(CC)CCCN1C(=O)C(=O)/C(=C(/O)c2ccc(OC)cc2)C1c1ccco1 (stereo not shown)	15.6
Cc1ccc(C(=O)N/C(=C/c2cccs2)C(=O)NCC2CCCO2)cc1 (stereo not shown)	-9.01
Cc1cccc(NC(=O)CCNC(=O)c2ccc(Br)cc2)c1C	17.5
CCOC(=O)N/N=C\c1ccc([N+](=O)[O-])s1	5.72
CN(C(=O)c1ccc2c(c1)C(=O)N(CCC1=CCCCC1)C2=O)C1CCCCC1	-11.1
CC(=O)N/C(=C\c1ccccc1)C(=O)OCC(=O)c1ccccc1	9.41
Cc1ccc(C)c(CN2CCCN(Cc3cc(C)ccc3C)S2(=O)=O)c1	20.8
COc1ccc(C(=O)C(CO)Oc2ccccc2OC)cc1OC (stereo not shown)	5.98
COc1cccc(C(=O)NCC2CCN(c3ccc(S(=O)(=O)N4CCOCC4)cc3)CC2)c1	-22.9
CN(CC(=O)Nc1ccccc1-c1ccccc1)Cc1ccccc1Cl	28.2
CCCn1nnnc1SCC(=O)NCc1ccccc1	0.33
CCCOc1ccc(C(=O)c2nc3c(n2O)CCCC3)cc1	16.1
O=C(CSc1nnc(SCc2ccc(Cl)cc2)s1)N/N=C/c1ccccc1Cl	-9.5
O=C(NCCCN1CCCC1=O)c1ccc(S(=O)(=O)Nc2cccc(C(F)(F)F)c2)cc1	-5.71
O=C(OCc1ccc([N+](=O)[O-])cc1)c1cnc(Cl)c(Cl)c1	31.8
CSc1ccc(/C=N/NC(=O)c2cccs2)cc1	14.1
CC1Cc2ccccc2N1C(=S)Nc1cccc(S(=O)(=O)N(C)C)c1 (stereo not shown)	2.06
S=c1nc(-c2ccccc2)n(-c2ccccc2)[nH]1	16.8
COc1ccc(CNC(=O)[C@]2(C)CCC[C@@]3(C)C4CC[C@@]5(C)C[C@]4(CCC32)CC5=O)cc1 (stereo partly shown)	10.2
O=C(c1ccc2nc(N3CCCCC3)sc2c1)N1CCN(c2ccccn2)CC1	-13.6
